Among all 45,000 compounds or so, about 200 (0.44%) were called active. Not shown: some 7% with an inconclusive outcome. The call rests on the fitted dose curve; in most records, active means well fitted activation curve with a large enough effect; inconclusive means small, poorly fitted or top-dose-only effect; inactive means no such curve, though single readings can be large or run the other way. The list shows a part of the results.
Test: qHTS of TDP-43 Inhibitors: NCGC Sytravon Library Screen; further: nearly all actives have a fitted effect of over 55% in size; on growth rescue (activation): 0% is about no effect
Details: yeast TDP-43 toxicity rescue, BacTiter-Glo growth, 24 h; series mostly up to 46.1 µM; growth rescue (activation): at the top concentration
Summary of the method: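 TDP-43-expressing yeast, pregrown in raffinose, seeded at OD600 0.02 in galactose medium with compound for 24 hr at 30 deg C. Growth read by BacTiter-Glo luminescence, so rescue of toxicity appears as activation.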
Potency means the concentration at half of the fitted maximal effect.

Row | SMILES | growth rescue (activation) | Potency
1 | CCCCN1C(=O)C2C3C=CC(C2C1=O)C1C2C(=O)N(CCCC)C(=O)C2C31 (stereo not given) | inactive: -2.86% | 
2 | OCCN1CCN(c2cc(-c3ccccc3)c3ccccc3n2)CC1 | inactive: -3.38% | 
3 | O=C(N[C@@H](Cc1ccccc1)C(=O)N1CCN(S(=O)(=O)c2ccccc2F)CC1)c1ccco1 | inactive: 23.2% | 
4 | CCN(Cc1ccccc1)C(=O)c1cccnc1 | inactive: -13.4% | 
5 | CCc1cc(C(=O)N2CCCC(C(=O)c3cccc(OC(C)C)c3)C2)n(C)n1 (stereo not given) | inactive: 10.5% | 
6 | O=C(c1ccc(Cl)cc1)N1C2C=CC(C2)C1(C(F)(F)F)C(F)(F)F (stereo not given) | inactive: 2.42% | 
7 | Cc1cc[n+](-c2[nH]c(=O)sc2/C=N/N=C(\[O-])c2ccccc2)cc1 | inactive: -1.03% | 
8 | CC(=O)Nc1ccc(NC(=O)C2CC(=O)N(c3ccccc3Cl)C2)cc1 (stereo not given) | inactive: 8.05% | 
9 | Cc1cccc(NC(=O)CN2CCN(C(=O)C3CCC3)CC2)c1C | inactive: 5.09% | 
10 | Cc1nn(-c2ccccc2)c(N2CCCC2)c1/C=N/NC(=O)c1cc(-c2cccnc2)nc2ccccc12 | inactive: 9.47% | 
11 | CN1CCC(=NNC(=O)COc2ccc(Cl)cc2)CC1 | inactive: 12% | 
12 | Cc1ccc(C(=O)CSc2ncnc3ccccc23)o1 | inactive: 30.8% | 
13 | O=S(=O)(NCc1ccccn1)c1ccc2ccccc2c1 | inactive: 7.52% | 
14 | Cc1cc(NC(=O)COC(=O)CNS(=O)(=O)c2c(F)cc(F)cc2Br)no1 | inactive: 11.9% | 
15 | CCOC(=O)CSc1nc2ccc(N)cc2s1 | inactive: 41.1% | 
16 | COc1ccccc1N1CCN(C2CCN(S(=O)(=O)c3ccc(NC(C)=O)cc3)CC2)CC1 | inactive: 13.1% | 
17 | CC(C)[C@H](NS(=O)(=O)c1ccccc1F)C(=O)OCC(=O)Nc1cccc(S(N)(=O)=O)c1 | inactive: 14.8% | 
18 | Cc1ccccc1NS(=O)(=O)c1ccc(NS(=O)(=O)c2cccs2)cc1 | inactive: 9.2% | 
19 | COCCn1c(=O)[nH]c2cc(C(=O)N3CCN(c4cccc(Cl)c4)CC3)ccc2c1=O | inactive: 15.6% | 
20 | N#Cc1ccc(C(=O)OCC(=O)Nc2ccc(S(N)(=O)=O)cc2)cc1 | inactive: -4.92% | 
21 | N=C1S/C(=C\c2ccc(O)cc2)C(=O)N1c1ccc(F)cc1 | inactive: 3.97% | 
22 | Cc1cc(C)c(S(=O)(=O)N2CCN(C(=O)N(C)C)CC2)c(C)c1 | inactive: -13.8% | 
23 | CCC(=O)Nc1ccc(NC(=O)c2cc3ccccc3o2)c(OC)c1 | inactive: -9.81% | 
24 | Cc1cc(C)cc(NC(=O)CN2CCN(C(=O)c3cccs3)CC2)c1 | inactive: -8.7% | 
25 | Cc1ccc(NCC(=O)N=Nc2c(O)n(C)c3ccccc23)cc1 | inactive: 9.97% | 
26 | Cc1ccc(C)c(C(O)c2ncc(-c3ccc(Cl)cc3)[nH]2)c1 (stereo not given) | inactive: 10% | 
27 | O=C(CSc1nc(-c2ccco2)cc(C(F)(F)F)n1)NCCN1CCOCC1 | inactive: -3.44% | 

Row | SMILES | growth rescue (activation) | Potency
28 | Cc1cc(=O)[nH]c(SCC(=O)NC2CCCCC2)n1 | inactive: -1.44% | 
29 | CN1C(=O)/C(=C\c2ccc(-c3ccccc3)o2)SC1=S | inactive: 11.7% | 
30 | COc1ccc(NC(=O)N2CCCC2C(=O)NC2CCCC2)cc1 (stereo not given) | inactive: 17.2% | 
31 | COc1c(C)cc(C(O)c2ncc(-c3cccc(C(F)(F)F)c3)[nH]2)cc1C (stereo not given) | inactive: -3.78% | 
32 | CCOC(=O)C1CCCN(C(=O)c2cc(C)oc2C)CC1 (stereo not given) | inactive: 16.9% | 
33 | CCNc1nc(NCC)nc(N/N=C/c2ccc(O)c(OC)c2)n1 | inactive: 8.29% | 
34 | CCCN=C(C)C1=C(O)c2ccccc2C1=O | inactive: 18.5% | 
35 | Cc1ccc(C(=O)NN(CCC(=O)NC(C)(C)C)C2=NS(=O)(=O)c3ccccc32)cc1 | inactive: 23.4% | 
36 | COc1ccccc1-c1nc(C#N)c(N2CCN(Cc3ccccc3)CC2)o1 | inactive: 1.61% | 
37 | O=C(N/N=C/c1ccc([N+](=O)[O-])s1)c1ccccc1 | inactive: -7.13% | 
38 | CCOc1ccc(OCCOCCOc2ccccc2Cl)cc1 | inactive: 24.2% | 
39 | COc1cc(NC(=O)CCn2c(=O)oc3ccccc32)cc(OC)c1OC | inactive: 7.61% | 
40 | O=C(OCn1ncc(Br)c(Br)c1=O)c1ccc(F)cc1 | inactive: -91% | 
41 | Cc1noc(C)c1C(=O)NC(C)c1ccc(Cl)cc1Cl (stereo not given) | inactive: 11.7% | 
42 | N#Cc1cc(-c2ccccc2)nc(N2CCNCC2)n1 | inactive: -2.1% | 
43 | Oc1[nH]c(=S)sc1/C=C1\C(c2ccccc2)=Nc2ccccc21 | inactive: -3.23% | 
44 | Cc1nnc(-c2ccc(Oc3ccc(Br)cc3)c([N+](=O)[O-])c2)o1 | inactive: 11.2% | 
45 | CC1(C)Cc2ccccc2C(COc2ccccc2)=N1 | inactive: 3.27% | 
46 | Cc1ccc(NC(=O)NCc2cccn2C)cc1C | inactive: -6.65% | 
47 | CC1=N/C(=C\c2ccc([N+](=O)[O-])cc2)C(=O)N1c1ccc(F)cc1F | inactive: -13.9% | 
48 | COc1cccc(NC(=O)Cn2c(=O)n(-c3cc(OC)c(OC)c(OC)c3)c(=O)c3ccccc32)c1 | inactive: -20.9% | 
49 | O=C(Cc1ccccc1)NNc1c2ccccc2nc2ccccc12 | inactive: 4.43% | 
50 | CN(C)C(CNC(=O)c1cccc(C#N)c1)c1ccco1 (stereo not given) | inactive: -1.02% | 
51 | CCCS(=O)(=O)c1c(S(=O)(=O)CCC)c2ccc(C(N)=O)cn2c1C(=O)c1ccc(F)cc1 | inactive: 2.54% | 
52 | CC1(C)C(=O)Nc2ccccc2N1C(=O)COc1ccccc1C#N | inactive: -2.03% | 
53 | C=CCn1c(C)cc(C(=O)COc2ccc(S(=O)(=O)N3CCCC3)cc2[N+](=O)[O-])c1C | inactive: 5.91% | 
54 | CCN(CC)S(=O)(=O)c1ccc(OC)c(NC(=O)c2ccc(=O)[nH]c2)c1 | inactive: -3.98% | 

Row | SMILES | growth rescue (activation) | Potency
55 | Cc1nc(C(F)(F)F)ccc1C(=O)N1CCC1(C)C(=O)NS(C)(=O)=O (stereo not given) | inactive: 9.13% | 
56 | CSc1ccc(CN2CCC(C(=O)NCc3ccc(C)cc3)CC2)cc1 | inactive: -2.87% | 
57 | COc1ccc(NC(=O)c2ccc(NC(=O)CSc3nccc(=O)[nH]3)cc2)cc1 | inactive: 2.48% | 
58 | CN(C)c1ccc(P(=O)(OCc2ccccc2)C(O)c2ccc(Br)cc2)cc1 (stereo not given) | inactive: 4.85% | 
59 | O=C(Nc1ccc(-n2cnnn2)cc1)C1CCCN1C(=O)NC1CCCCC1 (stereo not given) | inactive: 19.7% | 
60 | O=C(NC1CCCC1)C(c1ccccc1F)N(C(=O)c1ccco1)C1CCCC1 (stereo not given) | inactive: 10% | 
61 | O=C(NCC1CCCO1)C(=O)N/N=C/c1cc(Cl)ccc1O (stereo not given) | inactive: -7.47% | 
62 | CN1CCN(C2=C(NS(=O)(=O)c3cccs3)C(=O)c3ccccc3C2=O)CC1 | inactive: -1.04% | 
63 | COCCn1nnnc1C(c1ccccc1)N1CCN(C(=O)c2ccco2)CC1 (stereo not given) | inactive: 11% | 
64 | CCCCN(C)CCNC(=O)C1CCN(c2nc3ccc(CC)cc3s2)CC1 | inactive: 10.1% | 
65 | N/C(=N\OC(=O)c1cccs1)c1cccc(Br)c1 | inactive: -73.1% | 
66 | O=C(CCCOc1ccc(Br)cc1)NCCc1ccc(OC(F)F)cc1 | inactive: 18.8% | 
67 | CC1(C(=O)NS(=O)(=O)c2ccc3ccccc3c2)CCN1C(=O)C1(c2ccc(Cl)cc2)CCC1 (stereo not given) | inactive: -7.5% | 
68 | Cc1c(-c2cccc(Cl)c2)nc2ccccc2c1C(=O)OCC(=O)N(C)C1CCS(=O)(=O)C1 (stereo not given) | inactive: -4.02% | 
69 | CCCCc1nnc(NC(=O)CSc2nc(N)cc(=O)[nH]2)s1 | inactive: 4.41% | 
70 | CCN(CCn1cccn1)C(=O)c1cc(COc2c(F)cccc2F)on1 | inactive: 11.7% | 
71 | CCN(CC)c1cccc(OCC(=O)N(C)CCC#N)c1 | inactive: 18% | 
72 | COc1ccc(OCC(=O)NNC(=S)NC(=O)c2ccc([N+](=O)[O-])cc2)cc1 | inactive: -14.9% | 
73 | CCOC(=O)c1c(NC(=O)CN2CCCCC2)sc(CN(C)C)c1-c1ccccc1 | inactive: -6.88% | 
74 | Cn1c(=O)cc(NCCc2ccccc2)[nH]c1=O | inactive: 1.75% | 
75 | O=C(C1CCCN(S(=O)(=O)c2cc(Cl)ccc2Cl)C1)N1CCCC1 (stereo not given) |  | active: 14.1 µM
76 | O=C(CCc1c[nH]c2ccccc12)NCc1ccncc1 | inactive: -0.4% | 
77 | O=C(NCCN1CCN(C(=O)c2cccc([N+](=O)[O-])c2)CC1)C(=O)NCc1ccc(Cl)cc1 | inactive: -9.79% | 
78 | COc1ccc(NC(=O)CNC(=O)Cc2ccccc2)cc1OC | inactive: 12.9% | 
79 | CC(=O)Nc1ccc(NC(=O)c2csc([C@H]3C[C@H](O)[C@@H](CO)O3)n2)cc1 | inactive: -1.33% | 
80 | C=CC[N+]1(CC(=O)NCc2ccc(NC(C)=O)cc2)CCOCC1 | inactive: 0.551% | 
81 | Cc1cc(C)n2nc(C(=O)N/N=C/c3cccc(Cl)c3)nc2n1 | inactive: -16.8% | 

Row | SMILES | growth rescue (activation) | Potency
82 | CC(=O)Nc1ccc([N+](=O)[O-])c(CS(=O)(=O)c2ccc(C)cc2)c1[N+](=O)[O-] | inactive: -12.8% | 
83 | O=C(COC(=O)c1cc(Cl)ccc1[N+](=O)[O-])Nc1cccc2ccccc12 | inactive: 6.65% | 
84 | O=C(CCc1nnc(CCCc2ccccc2)o1)NCCCC1CCCC1 | inactive: 18.5% | 
85 | Cc1ccc(O)c(C(CC(=O)NC2CCCCC2)c2ccccc2)c1 (stereo not given) | inactive: -11.2% | 
86 | CC1(C(=O)O)CCN1C(=O)c1ccccc1F (stereo not given) | inactive: 11% | 
87 | Cc1ccc(C(C)C)cc1OCC(=O)NNC(=O)Nc1ccccc1 | inactive: 5.26% | 
88 | CC(N)c1csc(Nc2ncccn2)n1 (stereo not given) | inactive: 9.59% | 
89 | CCCS(=O)(=O)NC(=O)C1(C)CCCN(C(=O)c2ccccc2OC)C1 (stereo not given) | inactive: 8.8% | 
90 | O=C(Cn1ccc2ccccc2c1=O)NCCC(=O)N1CCCCC1 | inactive: 6.23% | 
91 | CC(C)[C@H](NC(=O)c1c(F)cccc1F)C(=O)N1CCN(c2ccc(F)cc2)CC1 | inactive: -22.1% | 
92 | NS(=O)(=O)c1ccc(NC(=S)Nc2ccc(Br)c(Cl)c2)cc1 | inactive: 18% | 
93 | Cc1c(Cl)cccc1NC(=S)NC1CCN(Cc2ccccc2)CC1 | inactive: 9.27% | 
94 | CCC(C)c1ccc(OCC(=O)Nc2ccc(CN3CCOCC3)cc2)cc1 (stereo not given) | inactive: 2.5% | 
95 | O=S(=O)(Cc1ccccc1)NCC1CCCN(Cc2ccc(F)c(F)c2)C1 (stereo not given) | inactive: 5.41% | 
96 | Cc1ccc(C(=O)N/C(=C/c2cccs2)C(=O)NCC2CCCO2)cc1 (stereo not given) | inactive: 6.65% | 
97 | Cc1cc(/C=C(\C#N)C(=O)O)c(C)n1CC1CCCO1 (stereo not given) | inactive: 1.91% | 
98 | CCn1cc(CN2CCN(Cc3ccc(OC)c(C)c3C)C(CCO)C2)c(C)n1 (stereo not given) | inactive: -10.1% | 
99 | O=C(CCc1ccccc1)Nc1ccc(S(=O)(=O)N2CCOCC2)cc1 | inactive: 27.4% | 
100 | Cc1ccc(C)c(NC(=S)N(Cc2ccc(Cl)cc2)Cc2ccc(C(=O)O)cc2)c1 | inactive: -9.23% | 
101 | COc1ccc(NS(=O)(=O)c2ccc3nc(COc4ccc5ccccc5c4)[nH]c3c2)cc1 | inactive: 1.26% | 
102 | O=C(CSc1nnc(-c2n[nH]c3ccccc23)n1-c1ccccc1)Nc1ccccc1Cl | inactive: 5.56% | 
103 | Cc1c2cnn(CC(=O)Nc3c(F)c(F)cc(F)c3F)c(=O)c2c(C)n1Cc1ccccc1F | inactive: 12.2% | 
104 | Cn1nnnc1SCC(=O)Nc1cc(C(F)(F)F)ccc1N1CCOCC1 | inactive: 12.7% | 
105 | O=C(c1ccc(COc2ccccc2Cl)o1)N1CCN(Cc2ccc3c(c2)OCO3)CC1 | inactive: -2.42% | 
